According to publication PMC6052247, “Structurally Diverse Polyketides From the Mangrove-Derived Fungus Diaporthe sp. SCSIO 41011 With Their Anti-influenza A Virus Activities” (Frontiers in Chemistry, 2018):

What was measured:
[1] = test system: A/FM-1/1/47 (H1N1); experiment: microbe, parasite or virus in culture; assay type: cell-based; details: for IC50: read-out: IC50 A/FM-1/1/47 (H1N1)
[2] = test system: A/Aichi/2/68 (H3N2); experiment: microbe, parasite or virus in culture; assay type: cell-based; details: for IC50: read-out: IC50 A/Aichi/2/68 (H3N2)
[3] = Influenza A virus, H1N1, MDCK, 48 h
[4] = Influenza A virus, H3N2, MDCK, 48 h

Row | Compound | IC50 [1] | IC50 [2] | IC50 [1, 3] | inhibition effect on A/FM-1/1/47 (H1N1) (in words) ([1]; dose-dependent, Figure 4) | IC50 [2, 4] | inhibition effect on A/Aichi/2/68 (H3N2) (in words) ([2]; dose-dependent, Figure 4)
1 | 5-chloroisorotiorin | 38 ± 15.1 µM | 10.1 ± 1.84 µM |  |  |  | 
2 | CCCCCc1cc(=O)c2c(CC(=O)OC)cc(O)cc2o1 [Compound 14, pestalotiopsone F] |  |  | 6.74 ± 1.26 µM | obvious inhibition effect | 6.17 ± 1.46 µM | obvious inhibition effect
3 | CCCCCCCc1cc(=O)c2c(CC(=O)OCC)cc(O)cc2o1 [Compound 15, pestalotiopsone B] |  |  | 4.82 ± 1.9 µM |  | 6.76 ± 2.72 µM | 

Read-outs that look alike come from different tables or passages of the source.
